We go through 95 molecules from PubChem BioAssay AID1508624 (National Center for Advancing Translational Sciences (NCATS), 2021).

Molecules are shown by their SMILES. In all, about 48,000 compounds went through this assay and about 120 (0.25%) were called active. Inconclusive results (about 4%) are left out. Calls come from the whole dose curve; as a rule, active = well fitted activation curve with a large enough effect; inconclusive = small, poorly fitted or top-dose-only effect, or another doubt; inactive = no such curve, though single readings can be large or run the other way. The list shows a part of the results.

This experiment is described as follows: Primary qHTS for Identification of Small Molecule Activators of Huntingtin-Antisense Promoter Activity. Note: nearly all actives have a fitted effect of over 55% in size. To be noted: HEK293 HTT-AS promoter firefly luciferase reporter, 24 h; series mostly up to 57.5 µM; activity change, positive = activation: at the top concentration. A digest of the protocol: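 HEK293 luciferase promoter-reporter cells (2,500/well) plated 24 h, then compounds added at up to 57.5 uM final for 24 h at 37 °C. Firefly luminescence by Dual-Glo, normalized to vehicle (0%) and zero RLU (-100%).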
A general note: Quantitative high-throughput screening tests each substance at several concentrations.
On to `Cc1cc(Br)ccc1NC(=O)C1CCN(S(=O)(=O)c2ccc(Br)s2)CC1`, for which the “activity change, positive = activation” value is inactive: -12.3%.
For `CCOc1ccc(NC(=O)CCS(=O)(=O)c2ccc(Br)cc2)cc1` the value was inactive: -18.9%.
For `COc1ccc(NC(=O)c2c(C)oc3ccc(O)c(CN4CCN(Cc5ccccc5)CC4)c23)cc1` the value was inactive: -13%; for `Cc1cccc(Cn2c(SCc3ccc(C(=O)NC4CCCCC4)cc3)nc3ccncc32)c1`, inactive: -1.99%.
For the molecule `CCC(=O)N1CCc2cc(S(=O)(=O)CCC(=O)NCc3cccc(OC)c3)ccc21`, the “activity change, positive = activation” value was inactive: -15.9%.
The value for `Cn1ncc(C(=O)N2CCN(c3ccccc3F)CC2)c1C1CCN(C(=O)OC(C)(C)C)CC1` was inactive: -11.8%.
In the case of `Cc1cc(SCC(=O)NCc2ccc(F)cc2)nc(=O)[nH]1`, the “activity change, positive = activation” value was inactive: 2.61%.
The value for `CC(=O)c1ccc(NC(=O)CSc2nccn2Cc2ccc3c(c2)OCO3)cc1` was inactive: -12.3%; that for `CCCCN(CC)CCCNC(=O)c1cn(CC)c2ccc(S(=O)(=O)N3CCOCC3)cc2c1=O` was inactive: -10.4%.
In the case of `O=C(COCc1cc(-c2ccco2)on1)Nc1cccc(Cl)c1Cl`, the “activity change, positive = activation” value was inactive: -6.72%.
The value for `Cc1ccc(NC(=O)CSc2nc(-c3ccco3)cc(C(F)(F)F)n2)cc1C` was inactive: -28.9%; that for `CCOc1ccccc1-n1nnc(S(=O)(=O)c2ccc(C)cc2)c1N` was inactive: -25.3%.
For `COc1ccc(C2N3CC4(C)CN2CC(c2ccccc2)(C3)C4=O)cc1` (stereo not given) the value was inactive: 1.34%.
`COC(=O)Nc1nc2ccc(S(=O)c3ccccc3)cc2[nH]1` (stereo not given): the activity change, positive = activation result is “inactive”.
For `CCOc1ccc(NC(=O)c2oc3ccccc3c2NC(=O)Cc2cccc(C)c2)cc1`, the “activity change, positive = activation” value was inactive: -2%.
Take `COc1ccc(OC)c(NS(=O)(=O)c2ccc(Br)s2)c1`: the “activity change, positive = activation” value is inactive: -30.6%.
The value for `CCn1cc(C(=O)O)c(=O)c2cc3c(cc21)OCO3` was inactive: -14.5% [at 25.1 µM, percent change from vehicle, -100% = no light]; that for `O=C(Nc1ncc(SCCN2CCCC2)s1)[C@]1(c2ccc(S(=O)(=O)C3CC3)cc2)C[C@@H]1C1CCCCC1` was inactive: -18.6%; that for `CCC(C(=O)OCCN(CC)CC)c1ccccc1` (stereo not given) was inactive: -2.06%.
For `CC(C)c1ccc(NC(=O)CCNS(=O)(=O)c2cccc3nsnc23)cc1` the value was inactive: -20.7%.
The value for `COc1ccc(C(=O)Oc2ccc(C(c3c(C)[nH][nH]c3=O)c3c(C)[nH][nH]c3=O)cc2OC)cc1` was inactive: 0.979%; that for `CN1CCN(CCC(=O)Nc2ccc(Cl)cc2)CC1` was inactive: -13.7%; that for `CCCN1C(C(=O)c2ccccc2)=C(OC(=O)c2ccc(C)cc2)c2ccccc2S1(=O)=O` was inactive: -35.5%.
`Cc1ccc(NC(=O)Cn2c(=O)ccc3cc(S(=O)(=O)N4CCC(C)CC4)ccc32)cc1C`: the “activity change, positive = activation” value is inactive: -37.3%.
For the molecule `Cc1cccc(NC(=O)CSc2nc(=O)n(Cc3cccnc3)c3c2CCC3)c1`, the “activity change, positive = activation” value was inactive: -38.5%.
On to `COc1cc(Cl)c(C)cc1NC(=O)c1cc2c(s1)-c1c(C)cccc1OC2`, for which the “activity change, positive = activation” value was inactive: 1.37%.
`Cc1cc(=O)oc2cc(O[C@@H]3SC[C@@H](O)[C@H](O)[C@H]3O)ccc12`: the “activity change, positive = activation” value was inactive: 1.95%.
The value for `O=C(Cn1c(=O)nc(-c2ccccc2)c2cc(Cl)ccc21)NCCc1ccccc1` was inactive: 2.24%; that for `CCc1nn(CC(=O)N2CCN(c3cccc(C)c3C)CC2)c(=O)c2cc3sccc3n12` was inactive: -7.01%.
For `CCC(=O)N1CCc2cc(S(=O)(=O)NC(CC(C)C)C(=O)NCc3ccc(C)cc3)ccc21` (stereo not given) the value was inactive: -3.13%.
In the case of `Cc1ccc(O)c(-c2n[nH]c3c2C(c2ccccc2F)N(Cc2ccco2)C3=O)c1` (stereo not given), the “activity change, positive = activation” value is inactive: -39.4%.
For the molecule `Cc1cc2[nH]c(=O)c(=O)[nH]c2cc1S(=O)(=O)Nc1cccc(C(F)(F)F)c1`, the “activity change, positive = activation” value is inactive: -23%.
As for `Cc1sc2ncn(CC(=O)N3CCN(c4ccc(F)cc4)CC3)c(=O)c2c1S(=O)(=O)N1CCN(c2ncccn2)CC1`, the “activity change, positive = activation” value was inactive: -19.4%.
As to `CCOc1ccc(NC(=O)CN2CCN(c3ccc(Cl)cc3)CC2)cc1`, the “activity change, positive = activation” value was inactive: -18.5%.
The value for `O=C(c1cc(F)cc(F)c1)N1CCC(c2nc(-c3ccc(S(=O)(=O)N4CCCC4)cc3)no2)CC1` was inactive: -11.8%.
On to `COc1ccc(OC)c(CCNC(=O)c2cc3c(=O)n(C)c4ccccc4c3n2C)c1`, for which the “activity change, positive = activation” value is inactive: -10.8%.
On to `CCc1cccc(NC(=O)CCN2C(=O)c3ccccc3Sc3ncccc32)c1`, for which the “activity change, positive = activation” value was inactive: -25.6%.
For `COc1ccc(CN(C(=O)Cc2coc3ccc(C)cc23)C2CCS(=O)(=O)C2)cc1` (stereo not given) the value was inactive: -12.2%; for `CCOC(=O)c1cccc(NC(=O)C2CCCN(S(=O)(=O)c3cc(Br)cc4c3N(C(=O)CC)CC4)C2)c1` (stereo not given), inactive: -15.8%.
As for `Cc1cc(=O)n2nc(N(C)CC(=O)NCc3ccc(Cl)cc3)sc2n1`, the “activity change, positive = activation” value was inactive: -12.8%.
The value for `O=C(NCC1CCN(Cc2ccc(F)cc2)CC1)c1cc2ccc3cccnc3c2[nH]1` was inactive: -17.7%; that for `CCOc1ccc(NC(=O)Cn2c(=O)oc3cc(S(=O)(=O)N4CCC(C)CC4)ccc32)cc1` was inactive: -48.7%.
For `COc1cc(NC(=O)CC(C)S(=O)(=O)c2cc3c4c(c2)CCN4C(=O)CC3)cc(OC)c1` (stereo not given), the “activity change, positive = activation” value was inactive: 11.3%.
In the case of `Cc1ccccc1C(=O)Nc1cccc(C(=O)OCc2cc(=O)n3nc(C4CC4)sc3n2)c1`, the “activity change, positive = activation” value was inactive: 27.8%.
The value for `COc1ccc(Cn2c(CO)cnc2SCC(=O)NCc2ccco2)cc1` was inactive: -11.6%; that for `Cc1ccc(C)c(CN2C(=O)c3ccccc3Sc3ccc(C(=O)NCc4ccc5c(c4)OCO5)cc32)c1` was inactive: -19.7%; that for `COc1cc2nc(SCC(=O)Nc3cccc(C)c3)n3nc(-c4ccccc4)nc3c2cc1OC` was inactive: -11%.
For `COc1ccc(NC(=O)c2c(NC(=O)c3cccc(C)c3)sc3c2CCCC3)cc1` the value was inactive: -15%.
Turning to `Cc1ccc([N+](=O)[O-])cc1S(=O)(=O)N1CCn2cccc2C1c1ccc(F)c(F)c1` (stereo not given), the “activity change, positive = activation” value is inactive: -19.3%.
Turning to `CC(=O)c1cccc(NC(=O)c2ccc3nc(C(C)C)oc3c2)c1`, the “activity change, positive = activation” value is inactive: -4.69%.
The value for `COc1ccc(-c2nc(Cn3c(SCc4ccc(F)cc4)nc4cccnc43)c(C)o2)cc1` was inactive: -29%; that for `Cc1ccccc1NC(=O)Nc1cccs1` was inactive: 5.56%.
Turning to `O=C1c2oc3ccccc3c(=O)c2C(c2cccc(Br)c2)N1c1ccccn1` (stereo not given), the “activity change, positive = activation” value was inactive: -7.47%.
For `CCCCN(C)C(=O)Cn1cnc2sc(C)c(S(=O)(=O)N3CCN(c4ccccc4OC)CC3)c2c1=O` the value was inactive: 15.9%.
The value for `CCn1ccnc1CC1COc2ccccc2O1` (stereo not given) was inactive: 12.2%; that for `CNC(=O)c1ccc(NC(=O)COc2ccc(-c3nn(C)c(=O)c4ccccc34)cc2)cc1` was inactive: -24.3%; that for `Cc1ccc(OCC(=O)N(Cc2sccc2C)C2CCS(=O)(=O)C2)cc1` (stereo not given) was inactive: -4.55%.
Regarding `CCOC(=O)c1[nH]c2ccccc2c1NC(=O)c1cc(OCC)c(OCC)c(OCC)c1`, the “activity change, positive = activation” value was inactive: -13.7%.
For the molecule `Cc1ccc2onc(CC(=O)N3CCN(c4cccc(C)c4C)CC3)c2c1`, the “activity change, positive = activation” value was inactive: -32.5%.
For `Cc1cc(=O)n2nc(N3CCC(C(=O)NCc4ccc(Cl)cc4)CC3)sc2n1` the value was inactive: -7.05%; for `CCOc1ccc(NC(=O)Cn2c(CCC(=O)O)ccc2-c2ccc(C)cc2)cc1`, inactive: -8.02%; for `COc1ccc(-c2noc(CSc3nnc(-c4ccncc4)n3-c3ccc(C)c(C)c3)n2)cc1`, inactive: -30.7%.
The value for `Clc1ccc(Nc2nc(-c3ccccc3)c3cc(Cl)ccc3n2)cc1` was inactive: -26.7%; that for `COc1ccc(Cl)cc1NC(=O)Cn1cc(S(=O)(=O)Cc2cccc(Cl)c2)c2ccccc21` was inactive: -22.1%; that for `CCc1ccccc1Nc1nn2c(=O)c3ccc(C(=O)NCc4ccccc4Cl)cc3nc2s1` was inactive: -32.4%.
For `CCCCOc1ccc(C(=O)N(Cc2nc(-c3ccc(Cl)cc3)no2)C(C)C)cc1` the value was inactive: -20.8%.
On to `Cc1ccc(Cn2c(C)c(CNCc3ccc(OC(C)C)cc3)c(C(=O)O)c2C)cc1`, for which the “activity change, positive = activation” value is inactive: -25.6%.
Take `COc1ccc(CC(=O)NCCc2sc(-c3cccc(F)c3)nc2C)cc1`: the “activity change, positive = activation” value was inactive: -29.7%.
As to `CC(C)=CCC/C(C)=C/CO`, the “activity change, positive = activation” value was inactive: 0.0864%.
The value for `Cn1c(=O)oc2cc(S(=O)(=O)N3CCC(C(=O)N4CCN(c5cccc(Cl)c5)CC4)CC3)ccc21` was inactive: -42.9%.
The value for `CCOc1ccc(CCNC(=O)c2ccc(CS(=O)Cc3ccc(Cl)cc3)o2)cc1` (stereo not given) was inactive: -24.1%; that for `CN1CCc2c(sc3c2C(=O)NC(c2ccc(OC(=O)c4ccc(Cl)cc4)cc2)N3)C1` (stereo not given) was inactive: 6.66%.
The value for `CC(=O)N1CCc2cc(Br)cc(S(=O)(=O)CCC(=O)NCCc3ccc(Cl)cc3)c21` was inactive: -20.2%; that for `Cc1ccc(CSc2nc3c(c(=O)[nH]2)C(c2cccc(F)c2F)CC(=O)N3)cc1` (stereo not given) was inactive: -17.5%; that for `COc1ccc(N2CCN(C(=O)c3nn(-c4ccc(C)cc4)c(=O)n(C)c3=O)CC2)cc1` was inactive: -17%.
As for `COc1cccc(CNC(=O)CN(C)S(=O)(=O)c2ccc3c(c2)c(=O)n(C)c(=O)n3C)c1`, the “activity change, positive = activation” value is inactive: -22.5%.
The value for `CC(C)c1ccc(NC(=O)C(Cc2ccccc2)NS(=O)(=O)c2ccc3c(c2)CCC(=O)N3)cc1` (stereo not given) was inactive: -22.8%.
As for `Cn1nnnc1SCCNCc1ccccc1Cl`, the “activity change, positive = activation” value was inactive: -4.99%.
As for `COc1cc2ncc3c(-c4ccccc4)nn(-c4ccc(C)cc4)c3c2cc1OC`, the “activity change, positive = activation” value is inactive: -10.6%.
The value for `O=C(O)[C@@H](c1ccc(OCc2ccc3ccccc3n2)cc1)C1CCCC1` was inactive: 14%; that for `Cc1ccc(OCC(=O)Nc2ccc3nc(SCC(=O)N(C)c4ccccc4)sc3c2)cc1` was inactive: -42.6%.
For `COc1ccc(NC(=O)c2sc3nc[nH]c(=O)c3c2C)cc1OC` the value was inactive: 3.67%; for `Cc1ccc2c(=O)cc(C(=O)Nc3nc4ccc(Cl)cc4s3)oc2c1`, inactive: -8.17%; for `O=C(Nc1ccc(C(=O)OCc2cc(=O)n3c4c(sc3n2)CCCC4)cc1)c1cccc(F)c1`, inactive: 3.6%.
For `Cc1cccc(C(=O)Nc2ccccc2OCc2cc(=O)n3c(C)csc3n2)c1` the value was inactive: -12.4%; for `COc1ccc(CCNc2nc3c(c(=O)n(C)c(=O)n3C)n2Cc2ccccc2Cl)cc1OC`, inactive: -10.6%.
For the molecule `O=C(Cn1cc(S(=O)(=O)Cc2ccccc2F)c2ccccc21)NCc1ccccc1`, the “activity change, positive = activation” value is inactive: -14.4%.
The value for `Cc1csc2nc(-c3cccc(NC(=O)c4c(F)cccc4F)c3)cn12` was inactive: -12.5%.
The value for `CCOc1ccc(Nc2c3c(nc4nncn24)CCC3)cc1` was inactive: -32.9%; that for `COc1cc(OC)cc(N2C(=O)CSC23C(=O)Nc2ccccc23)c1` (stereo not given) was inactive: -0.738%.
With `COc1ccc(C(=O)OCc2cc(=O)n3nc(C4CC4)sc3n2)cc1OC`, the “activity change, positive = activation” value was inactive: -20.3%.
`O=C(Nc1ccc(S(=O)(=O)N(Cc2ccccc2)c2ccccc2)cc1)c1ccc(F)cc1`: the “activity change, positive = activation” value is inactive: -38.1%.
For `O=C(CCCn1c(=O)c2ccccc2n(Cc2cccc(F)c2)c1=O)NCc1ccccc1Cl` the value was inactive: -4.93%; for `O=C(CCc1ccccc1)N1CCc2c([nH]c3ccccc23)C1c1ccc(F)cc1` (stereo not given), inactive: -31.5%; for `Cc1cc2oc(C(=O)Nc3c(C)n(C)n(-c4ccccc4)c3=O)cc(=O)c2cc1C`, inactive: 12.3% [at 11.5 µM, percent change from vehicle, -100% = no light].
